# Values joined by “and” are separate entries in the source; they are usually repeats but may differ in a detail not shown here. Identical values can stand only once. Inconclusive means that the source gave no clear call. Such entries were picked first, then a sample of the others. For some of these results: A potency beside an inconclusive call is a rough fit, not a confirmed value. Some structures have more than one record in an assay (separate samples or runs), and their calls can disagree. Active and inactive are the calls of the source. Unless noted, the call rests on the fitted dose curve; in most records, active means well fitted curve in the direction sought with a large enough effect in the repeat runs; inconclusive means weak or mixed curves; inactive means no such curve, though single readings can be large; an effect the other way counts as inactive or inconclusive.
# How the values were obtained:
# [1] = molecular target: Thyrotropin-releasing hormone receptor (Homo sapiens) (UniProt P34981); experiment: qHTS assay to identify small molecule agonists of the thyrotropin-releasing hormone receptor (TRHR) signaling pathway (AID 1346891; calls by dose curve;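 further: HEK293 cells expressing TRHR with calcium dye readout; on the % scale 0 is the no-effect control and ±100 the full control effect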)
# Outline: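 HEK293/TRHR cells, 1500 per well, 18 h 37 °C; Ca dye 2 h 37 °C; pin-tool compound addition (agonist mode); kinetic fluorescence 3 min, 1 s reads; 15 concentrations, triplicate.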
# [2] = molecular target: Cytochrome P450 2C9 (Homo sapiens) (UniProt P11712); experiment: Cytochrome P450 Family 2 Subfamily C Member 9 (CYP2C9) small molecule antagonists: luciferase reporter qHTS assay (AID 1671198); further: potency means the concentration at half of the fitted maximal effect; nearly all actives have a fitted effect of over 50% in size
# Outline: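 CYP2C9 activity was measured with a P450-Glo proluciferin substrate. Enzyme–substrate mix was held with compound for 10 min at room temperature, then NADPH regeneration solution was added for 1 h at 37C. Luciferin product was read as luminescence.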
# [3] = qHTS assay to identify small molecule antagonists of the TGF-beta/Smad signaling pathway (AID 1346924; active means well fitted inhibition curve with a large enough effect in the signal ratio in the repeat runs, not every such curve was filed as active; inconclusive means weak or mixed curves; the % refers to the signal ratio; further: potency means the concentration at half of the fitted maximal effect); settings: SBE-bla HEK293T, TGF-beta/Smad reporter, beta-lactamase ratio
# Outline: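 SBE-bla HEK 293T cells were plated overnight, then received compound in DMSO plus TGF-beta1 (added as a 0.25 ng/mL solution) and were incubated 5 h at 37 C. Beta-lactamase reporter activity was read after 2 h at room temperature with LiveBLAzer B/G FRET substrate (ex 405, em 460/530 nm).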
# [4] = Caspase-3/7 induction in CHO-K1 cells by small molecules, qHTS cell viability counter screen (AID 1346979); further: nearly all actives have a fitted effect of over 35% in size; further: potency means the concentration at half of the fitted maximal effect
# Outline: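 CHO-K1 wt, 1,500 cells/well; 5hr pre-incubation 37C/5% CO2; compound pin transfer (DMSO); 16hr exposure; CellTiter-Fluor added, 1hr, fluorescence read.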
# [5] = molecular target: Nuclear receptor subfamily 1 group I member 2 (Rattus norvegicus) (UniProt Q9R1A7); experiment: Rat pregnane X receptor (rPXR) activation by small molecules, qHTS assay (AID 1346983); settings: rPXR luciferase reporter cells, One-Glo luminescence, 24 h; max activation: stronger effect = higher value; further: potency means the concentration at half of the fitted maximal effect; nearly all actives have a fitted effect of over 20% in size
# Outline: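 Cell-based rPXR luciferase reporter assay, 2,000 cells per well, rested 5hr at 37 C before compound addition in DMSO, then 24 hr at 37 C. One-Glo reagent was added and luminescence read after 30 min at room temperature.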
# [6] = molecular target: Cytochrome P450 2C19 (Homo sapiens) (UniProt P33261); experiment: Cytochrome P450 Family 2 Subfamily C Member 19 (CYP2C19) small molecule antagonists: luciferase reporter qHTS assay (AID 1671197); further: nearly all actives have a fitted effect of over 65% in size; further: potency means the concentration at half of the fitted maximal effect; on activity change, negative = inhibition: on the % scale 0 is the no-effect control and ±100 the full control effect
# Outline: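 Enzyme-substrate mix with proluciferin substrate (P450-Glo CYP2C19 system) preincubated with compounds 10 min at room temperature; NADPH regeneration solution added, 37C for 1 h; detection reagent stops reaction, luminescence read after 20 min. Ketoconazole positive control.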
# [7] = Human pregnane X receptor (PXR) small molecule agonists, qHTS cell viability counter screen (AID 1346977); further: potency means the concentration at half of the fitted maximal effect; nearly all actives have a fitted effect of over 50% in size
# Outline: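 Fluorescence read-out (CellTiter-Fluor) of viability in PXR-Luc HepG2 cells, multiplexed with the luciferase agonist read. Compounds in DMSO added after 5hr plating; 24hr total exposure at 37C, 5% CO2.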
# [8] = Caspase-3/7 induction in HepG2 cells by small molecules, qHTS cell viability counter screen (AID 1346981); further: potency means the concentration at half of the fitted maximal effect; nearly all actives have a fitted effect of over 30% in size
# Outline: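 Wild-type HepG2 cells, 2,000/well, settled 5 hr at 37 C, 5% CO2 before compound addition. Viability read by CellTiter-Fluor fluorescence, reagent added after 16 hr compound exposure, then 1 hr at 37C, in the same wells as the caspase read.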
# [9] = molecular target: Nuclear receptor subfamily 1 group I member 2 (Homo sapiens) (UniProt O75469); experiment: Human pregnane X receptor (PXR) small molecule agonists, qHTS assay (AID 1346982); further: potency means the concentration at half of the fitted maximal effect; nearly all actives have a fitted effect of over 35% in size
# Outline: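 PXR-Luc HepG2 reporter cells (CYP3A4-driven luciferase) in 5% charcoal-stripped FBS medium, plated 5 h before compound addition, then treated 24 h at 37C. Luciferase read by ONE-Glo luminescence after 30 min at room temperature.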
# [10] = molecular target: Cytochrome P450 2D6 (Homo sapiens) (UniProt P10635); experiment: Cytochrome P450 Family 2 Subfamily D Member 6 (CYP2D6) small molecule antagonists: luciferase reporter qHTS assay (AID 1671196); further: potency means the concentration at half of the fitted maximal effect; nearly all actives have a fitted effect of over 50% in size
# Outline: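 Cell-free P450-Glo system: CYP2D6 with proluciferin substrate was pre-incubated with compound for 10 min, then reacted with NADPH regeneration for 1 h at room temperature. Luciferin product was detected after 20 min, and data were reported as relative luminescence units.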
# [11] = molecular target: Cytochrome P450 3A4 (Homo sapiens) (UniProt P08684); experiment: Cytochrome P450 Family 3 Subfamily A Member 4 (CYP3A4) small molecule antagonists: luciferase reporter qHTS assay (AID 1671201); further: potency means the concentration at half of the fitted maximal effect; nearly all actives have a fitted effect of over 50% in size
# Outline: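 Luminescent readout (RLU) proportional to CYP3A4 activity, from luciferin generated off a proluciferin substrate. Enzyme–substrate mix plus compound 10 min at room temp, NADPH regeneration 1 h, detection reagent 20 min.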
# [12] = Caspase-3/7 induction in HepG2 cells by small molecules, qHTS assay (AID 1346978); further: nearly all actives have a fitted effect of over 15% in size; further: potency means the concentration at half of the fitted maximal effect
# Outline: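 Wild-type HepG2 cells (2,000/well) were settled 5 h at 37 C, 5% CO2, then exposed to compounds in DMSO for 17 h. Caspase-3/7 activity was read by luminescence 30 min after adding Caspase-Glo 3/7 reagent at room temperature.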
# [13] = molecular target: Cytochrome P450 1A2 (Homo sapiens) (UniProt P05177); experiment: Cytochrome P450 Family 1 Subfamily A Member 2 (CYP1A2) small molecule antagonists: luciferase reporter qHTS assay (AID 1671199); further: nearly all actives have a fitted effect of over 50% in size; further: potency means the concentration at half of the fitted maximal effect; on activity change, negative = inhibition: on the % scale 0 is the no-effect control and ±100 the full control effect
# Outline: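 P450-Glo CYP1A2 enzyme–proluciferin substrate mix with compound 10 min at room temperature, then NADPH regeneration 1 h at room temperature. Luciferin detection reagent added, luminescence read after 20 min; furafylline positive control.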
# [14] = Caspase-3/7 induction in CHO-K1 cells by small molecules, qHTS assay (AID 1346980); further: potency means the concentration at half of the fitted maximal effect; nearly all actives have a fitted effect of over 15% in size
# Outline: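 Wild-type cells were seeded at 1,500 per well and settled 5 hr at 37 C, 5% CO2, then exposed to DMSO-dissolved compounds for 17 hr. Caspase-Glo 3/7 reagent was added, and luminescence was read after 30min at room temperature.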
# [15] = molecular target: Voltage-gated inwardly rectifying potassium channel KCNH2 (Homo sapiens) (UniProt Q12809); experiment: Human Ether-a-go-go-Related Gene (hERG) channel small molecule antagonists: fluorescence cell-based qHTS assay (AID 1671200)
# Outline: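 Read-out: thallium influx as a surrogate for potassium, tracked as fluorescence (480 nm ex/540 nm em) every second for 2 min after Stimulus Buffer addition in dye-loaded hERG-U2OS cells.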
# [16] = activity, negative = inhibition: at 76.8 µM (top of the series) unless noted
# Tags describe the fitted curve by direction and shape or compound fluorescence and quenching.
# Sequence of UniProt P33261 (P33261 whole entry, looked up): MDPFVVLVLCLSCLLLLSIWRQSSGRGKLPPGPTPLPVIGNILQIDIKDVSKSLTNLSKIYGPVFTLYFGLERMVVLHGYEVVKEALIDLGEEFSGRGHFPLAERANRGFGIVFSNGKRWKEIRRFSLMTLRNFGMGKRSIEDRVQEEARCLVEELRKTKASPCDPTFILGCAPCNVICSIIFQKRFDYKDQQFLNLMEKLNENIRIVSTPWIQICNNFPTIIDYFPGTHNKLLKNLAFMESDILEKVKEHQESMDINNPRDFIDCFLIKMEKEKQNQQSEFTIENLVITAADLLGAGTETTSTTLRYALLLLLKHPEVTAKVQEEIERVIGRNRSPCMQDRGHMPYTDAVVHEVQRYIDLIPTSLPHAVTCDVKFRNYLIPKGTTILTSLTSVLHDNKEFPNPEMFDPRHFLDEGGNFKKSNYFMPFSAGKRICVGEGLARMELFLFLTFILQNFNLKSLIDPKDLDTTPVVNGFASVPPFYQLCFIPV
# Sequence of UniProt Q12809 (Q12809 whole entry, looked up): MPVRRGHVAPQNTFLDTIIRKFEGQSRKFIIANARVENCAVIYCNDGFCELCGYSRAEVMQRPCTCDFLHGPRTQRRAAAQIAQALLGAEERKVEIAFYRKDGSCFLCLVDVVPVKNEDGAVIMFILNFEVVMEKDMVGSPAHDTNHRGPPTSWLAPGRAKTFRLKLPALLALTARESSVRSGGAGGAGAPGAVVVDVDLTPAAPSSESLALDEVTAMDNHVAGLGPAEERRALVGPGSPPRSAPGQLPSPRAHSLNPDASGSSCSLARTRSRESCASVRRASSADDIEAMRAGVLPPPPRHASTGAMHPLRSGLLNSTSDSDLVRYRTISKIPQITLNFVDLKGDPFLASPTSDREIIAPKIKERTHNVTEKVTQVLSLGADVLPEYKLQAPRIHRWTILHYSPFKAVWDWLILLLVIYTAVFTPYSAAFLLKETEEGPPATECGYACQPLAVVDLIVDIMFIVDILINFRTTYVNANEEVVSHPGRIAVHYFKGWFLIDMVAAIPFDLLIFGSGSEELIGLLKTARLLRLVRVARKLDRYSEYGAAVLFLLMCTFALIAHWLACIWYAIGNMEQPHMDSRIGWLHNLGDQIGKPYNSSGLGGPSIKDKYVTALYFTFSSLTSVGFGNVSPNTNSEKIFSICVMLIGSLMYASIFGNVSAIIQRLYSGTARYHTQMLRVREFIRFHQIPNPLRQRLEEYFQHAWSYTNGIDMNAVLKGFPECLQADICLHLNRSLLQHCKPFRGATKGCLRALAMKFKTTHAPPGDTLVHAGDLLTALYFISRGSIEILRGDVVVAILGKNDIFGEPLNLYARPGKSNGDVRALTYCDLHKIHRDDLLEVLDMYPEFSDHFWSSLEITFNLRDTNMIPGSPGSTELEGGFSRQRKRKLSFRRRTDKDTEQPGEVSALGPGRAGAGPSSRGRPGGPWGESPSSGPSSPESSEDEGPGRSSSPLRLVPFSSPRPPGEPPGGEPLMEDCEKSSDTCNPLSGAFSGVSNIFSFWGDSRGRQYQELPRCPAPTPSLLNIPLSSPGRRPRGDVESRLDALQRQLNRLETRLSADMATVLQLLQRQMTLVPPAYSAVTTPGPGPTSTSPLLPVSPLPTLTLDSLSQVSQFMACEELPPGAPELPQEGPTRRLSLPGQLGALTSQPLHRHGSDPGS
# Sequence of UniProt P11712 (P11712 whole entry, looked up): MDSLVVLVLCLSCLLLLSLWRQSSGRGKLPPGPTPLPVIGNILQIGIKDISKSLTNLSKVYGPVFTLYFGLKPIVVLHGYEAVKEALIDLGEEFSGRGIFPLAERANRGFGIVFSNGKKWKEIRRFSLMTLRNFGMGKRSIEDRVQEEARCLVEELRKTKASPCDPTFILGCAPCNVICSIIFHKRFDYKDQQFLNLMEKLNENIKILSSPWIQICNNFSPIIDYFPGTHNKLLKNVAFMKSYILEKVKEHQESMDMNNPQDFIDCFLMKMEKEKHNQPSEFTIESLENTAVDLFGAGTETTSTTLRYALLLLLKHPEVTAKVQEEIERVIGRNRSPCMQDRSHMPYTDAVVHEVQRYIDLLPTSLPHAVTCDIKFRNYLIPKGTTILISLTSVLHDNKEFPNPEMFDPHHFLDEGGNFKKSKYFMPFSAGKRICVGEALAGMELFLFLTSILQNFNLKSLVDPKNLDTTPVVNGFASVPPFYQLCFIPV
# Sequence of UniProt P10635 (P10635 whole entry, looked up): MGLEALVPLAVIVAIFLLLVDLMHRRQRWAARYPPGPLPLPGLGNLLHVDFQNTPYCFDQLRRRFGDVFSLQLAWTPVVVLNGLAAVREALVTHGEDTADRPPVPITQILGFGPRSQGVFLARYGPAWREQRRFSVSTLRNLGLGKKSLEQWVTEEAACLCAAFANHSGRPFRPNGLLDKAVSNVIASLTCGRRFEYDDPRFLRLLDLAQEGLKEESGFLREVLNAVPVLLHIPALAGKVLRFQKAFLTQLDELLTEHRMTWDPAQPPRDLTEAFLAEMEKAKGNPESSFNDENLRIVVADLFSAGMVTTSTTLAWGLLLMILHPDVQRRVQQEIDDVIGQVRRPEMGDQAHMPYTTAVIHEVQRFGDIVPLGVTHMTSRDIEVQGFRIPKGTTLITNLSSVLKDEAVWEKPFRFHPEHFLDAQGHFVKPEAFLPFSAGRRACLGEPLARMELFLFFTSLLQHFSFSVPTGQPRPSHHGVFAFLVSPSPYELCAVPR
# Sequence of UniProt P05177 (P05177 whole entry, looked up): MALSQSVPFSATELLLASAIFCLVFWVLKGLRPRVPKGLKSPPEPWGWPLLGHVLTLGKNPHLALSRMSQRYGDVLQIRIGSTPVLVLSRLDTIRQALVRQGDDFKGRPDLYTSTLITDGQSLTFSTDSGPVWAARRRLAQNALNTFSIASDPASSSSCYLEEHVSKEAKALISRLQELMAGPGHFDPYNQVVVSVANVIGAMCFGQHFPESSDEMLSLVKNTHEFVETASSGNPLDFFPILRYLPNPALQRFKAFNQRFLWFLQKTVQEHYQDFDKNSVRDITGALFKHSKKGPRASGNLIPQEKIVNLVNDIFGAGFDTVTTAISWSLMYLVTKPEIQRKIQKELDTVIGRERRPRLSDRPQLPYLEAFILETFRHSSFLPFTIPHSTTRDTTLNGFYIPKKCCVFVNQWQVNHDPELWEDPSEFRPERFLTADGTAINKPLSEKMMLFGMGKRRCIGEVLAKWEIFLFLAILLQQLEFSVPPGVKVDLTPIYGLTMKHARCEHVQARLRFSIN
# Sequence of UniProt P08684 (P08684 whole entry, looked up): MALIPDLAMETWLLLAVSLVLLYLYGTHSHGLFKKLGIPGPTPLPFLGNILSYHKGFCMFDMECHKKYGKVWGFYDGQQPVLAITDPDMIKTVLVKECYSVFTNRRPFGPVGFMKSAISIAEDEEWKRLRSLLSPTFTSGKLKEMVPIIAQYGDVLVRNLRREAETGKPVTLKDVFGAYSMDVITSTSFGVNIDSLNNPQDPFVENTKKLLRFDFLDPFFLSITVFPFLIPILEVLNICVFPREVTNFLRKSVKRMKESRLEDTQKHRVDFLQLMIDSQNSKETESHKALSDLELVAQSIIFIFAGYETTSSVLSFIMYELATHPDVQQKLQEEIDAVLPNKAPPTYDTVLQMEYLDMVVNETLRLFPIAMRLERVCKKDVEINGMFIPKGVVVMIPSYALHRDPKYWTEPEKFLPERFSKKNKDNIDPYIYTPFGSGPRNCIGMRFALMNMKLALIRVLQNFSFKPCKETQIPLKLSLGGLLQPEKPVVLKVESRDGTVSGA
# Sequence of UniProt P34981 (P34981 whole entry, looked up): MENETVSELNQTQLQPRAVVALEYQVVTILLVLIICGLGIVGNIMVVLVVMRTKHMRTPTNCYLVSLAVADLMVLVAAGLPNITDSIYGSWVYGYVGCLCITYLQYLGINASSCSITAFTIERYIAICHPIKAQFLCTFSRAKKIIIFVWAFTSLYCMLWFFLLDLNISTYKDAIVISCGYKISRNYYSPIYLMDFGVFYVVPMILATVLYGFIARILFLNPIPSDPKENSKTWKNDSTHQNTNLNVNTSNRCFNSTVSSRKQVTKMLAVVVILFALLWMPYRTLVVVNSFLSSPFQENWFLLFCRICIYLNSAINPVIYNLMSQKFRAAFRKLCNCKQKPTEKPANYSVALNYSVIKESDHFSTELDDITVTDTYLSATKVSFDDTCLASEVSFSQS
# Sequence of UniProt O75469 (O75469 whole entry, looked up): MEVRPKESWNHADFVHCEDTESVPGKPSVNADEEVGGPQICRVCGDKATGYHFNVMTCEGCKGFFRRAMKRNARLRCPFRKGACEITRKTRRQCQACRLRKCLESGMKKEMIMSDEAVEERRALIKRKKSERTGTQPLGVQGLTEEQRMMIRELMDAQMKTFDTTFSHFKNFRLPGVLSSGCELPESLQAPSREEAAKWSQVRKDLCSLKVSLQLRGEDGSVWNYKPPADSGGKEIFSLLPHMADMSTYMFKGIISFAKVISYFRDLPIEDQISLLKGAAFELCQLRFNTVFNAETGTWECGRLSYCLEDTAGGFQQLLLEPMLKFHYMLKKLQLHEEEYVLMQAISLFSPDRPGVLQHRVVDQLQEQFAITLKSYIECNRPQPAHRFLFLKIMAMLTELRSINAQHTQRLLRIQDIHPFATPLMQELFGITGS
# Sequence of UniProt Q9R1A7 (Q9R1A7 whole entry, looked up): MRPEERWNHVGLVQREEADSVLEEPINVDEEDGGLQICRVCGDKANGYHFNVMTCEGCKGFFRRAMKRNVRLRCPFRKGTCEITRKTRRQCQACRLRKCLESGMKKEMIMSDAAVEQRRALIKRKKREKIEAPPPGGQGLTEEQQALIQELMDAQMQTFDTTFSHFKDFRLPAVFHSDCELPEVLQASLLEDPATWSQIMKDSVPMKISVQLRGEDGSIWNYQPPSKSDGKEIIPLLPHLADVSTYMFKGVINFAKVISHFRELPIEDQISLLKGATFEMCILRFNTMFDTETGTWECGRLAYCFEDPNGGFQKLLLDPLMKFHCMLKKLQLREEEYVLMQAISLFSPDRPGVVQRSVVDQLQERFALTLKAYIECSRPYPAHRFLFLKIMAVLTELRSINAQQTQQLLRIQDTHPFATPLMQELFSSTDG
compound,measurement,setting,value
CCCCCCCCSCc1cc(C)c(O)c(CSCCCCCCCC)c1,Potency,[1],inactive
same,Potency,[2],active: 8.94 µM
Oc1c(Cl)ccc(Cl)c1Cl,"activity, negative = inhibition",[3]; [16],inconclusive: -9.74%
COc1ccc2cc(C=O)ccc2c1,Potency,[1],inactive
CCC(=O)O[C@@H]1C[C@H]2CC[C@]1(C)C2(C)C,"activity, negative = inhibition",[3]; [16],inconclusive: -12.2%
CCCSc1ccc2nc(NC(=O)OC)[nH]c2c1,"activity, negative = inhibition",[3]; at 35.3 µM (top of the series),inconclusive: -8.46%
same,"activity, negative = inhibition",[3]; at 76.8 µM (top of the series),inconclusive: 1.97%
same,Potency,[4],"inconclusive: 3.44 µM [cytotoxic, full curve] and inconclusive: 2.98 µM [cytotoxic, full curve]"
same,Potency,[5],"inconclusive: 3.98 µM [activator, partial curve, poor fit]"
same,Potency,[6],"inconclusive: 7.76 µM [inhibitor, full curve, poor fit]"
C=C(C)C(=O)Nc1ccc(Cl)c(Cl)c1,"activity, negative = inhibition",[3]; [16],inconclusive: -12.2%
same,Potency,[7],"inconclusive: 79.4 µM [cytotoxic, partial curve, poor fit]"
same,Potency,[4],"inconclusive: 77.7 µM [cytotoxic, partial curve, poor fit] and inconclusive: 76.6 µM [cytotoxic, partial curve, poor fit]"
same,Potency,[8],"inconclusive: 27.6 µM [cytotoxic, partial curve]"
same,Potency,[9],active: 61.8 µM and active: 54.3 µM
same,Potency,[10],"inconclusive: 57 µM [inhibitor, partial curve, poor fit]"
same,Potency,[2],active: 36 µM and active: 63 µM
same,Potency,[11],"inconclusive: 70.7 µM [inhibitor, single point]"
CC1=CC(C)C(C=O)CC1 (centres undefined),"activity, negative = inhibition",[3]; [16],inconclusive: -2.82%
same,Potency,[12],inactive
CN1CCN(C(c2ccccc2)c2ccccc2)CC1,"activity, negative = inhibition",[3]; [16],inconclusive: 0.521% [at 35.3 µM]
same,Potency,[7],"inconclusive: 23.7 µM [cytotoxic, partial curve]"
same,Potency,[10],active: 4.9 µM
same,Potency,[13],inactive
Cc1cc(C)cc(O)c1,"activity, negative = inhibition",[3]; [16],inconclusive: -22.6%
same,Potency,[12],active: 12.2 µM
same,Potency,[4],active: 1.73 µM
same,Potency,[14],"inconclusive: 1.22 µM [activator, single point]"
same,Potency,[8],"inconclusive: 61.3 µM [cytotoxic, partial curve] and inconclusive: 28.1 µM [cytotoxic, single point]"
O=C(O)CN(CCCN(CC(=O)O)CC(=O)O)CC(=O)O,"activity, negative = inhibition",[3]; [16],inconclusive: 5.13% [at 15.8 µM]
same,Potency,[7],"inconclusive: 2.31 µM [cytotoxic, full curve]"
same,"activity change, negative = inhibition",[6],inactive: -5.87% [at 23.6 µM]
same,Potency,[15],"inconclusive: 6.57 µM [inhibitor, partial curve, poor fit]"
CCC(O)OCCCOC (centres undefined),"activity, negative = inhibition",[3]; [16],inconclusive: -20.1%
same,Potency,[7],active: 22.4 µM
same,Potency,[4],active: 5.59 µM and inactive
same,Potency,[8],"inconclusive: 35.3 µM [cytotoxic, partial curve]"
same,Potency,[2],"inconclusive: 51.6 µM [inhibitor, partial curve, poor fit]"
same,Potency,[13],inactive
CC1=CC(=C(c2ccc(N)cc2)c2ccc(N)cc2)C=CC1=N,"activity, negative = inhibition",[3]; [16],inconclusive: 12% [at 6.97 µM]
same,Potency,[7],"inconclusive: 2.76 µM [cytotoxic, partial curve]"
same,Potency,[4],"inconclusive: 3.47 µM [cytotoxic, partial curve, poor fit]"
same,Potency,[8],"inconclusive: 3.1 µM [cytotoxic, partial curve]"
same,Potency,[10],"inconclusive: 2.55 µM [inhibitor, partial curve]"
same,Potency,[6],"inconclusive: 4.53 µM [inhibitor, single point]"
same,Potency,[2],"inconclusive: 3.6 µM [inhibitor, partial curve]"
same,Potency,[13],"inconclusive: 3.6 µM [inhibitor, partial curve]"
Cc1nn(C)c(Oc2ccccc2)c1/C=N/OCc1ccc(C(=O)OC(C)(C)C)cc1,Potency,[3]; [16],"inconclusive: 0.155 µM [rising, full curve]"
same,Potency,[7],active: 0.0863 µM
same,Potency,[4],active: 0.0154 µM
same,Potency,[8],"inconclusive: 48.6 µM [cytotoxic, partial curve]"
same,Potency,[13],"inconclusive: 22.4 µM [inhibitor, full curve]"
same,Potency,[15],"inconclusive: 19.5 µM [inhibitor, partial curve]"
same,Potency,[11],"inconclusive: 22.4 µM [inhibitor, full curve]"
Cc1nc2sccn2c(=O)c1CCN1CCC(=C(c2ccc(F)cc2)c2ccc(F)cc2)CC1,Potency,[3]; [16],"inconclusive: 30.1 µM [fluorescent, single point]"
same,Potency,[7],inconclusive: 29.8 µM [cytotoxic]
same,Potency,[4],inactive
same,Potency,[6],"inconclusive: 43.6 µM [inhibitor, single point]"
same,Potency,[2],"inconclusive: 34.7 µM [inhibitor, partial curve]"
CCCOc1ccc(S(=O)(=O)N2CCN(CC)CC2)cc1-c1nc2c(CC)n(Cc3ccccn3)nc2c(=O)[nH]1,Potency,[3]; [16],"inconclusive: 54.9 µM [rising, partial curve, poor fit]"
same,Potency,[7],"inconclusive: 68.6 µM [cytotoxic, single point]"
same,Potency,[8],inconclusive: 77 µM [cytotoxic]
same,Potency,[6],active: 71 µM
same,Potency,[15],active: 21.9 µM

# — PubChem BioAssay (Tox21)
